Source: paper PMC4306531 (Chemistry & Biology, 2015)

How the values were obtained:
[1] = target: eukaryotic initiation factor 3 subunit a (eIF3a/Tif32) (Saccharomyces cerevisiae, UniProt P38249); experiment: native MS + cross-linking
[2] = target: eukaryotic initiation factor 3 subunit c (eIF3c/Nip1) with C-terminal TAP-tag (Saccharomyces cerevisiae, UniProt P32497); experiment: native MS + cross-linking
Sequence of UniProt P32497 (P32497 whole entry): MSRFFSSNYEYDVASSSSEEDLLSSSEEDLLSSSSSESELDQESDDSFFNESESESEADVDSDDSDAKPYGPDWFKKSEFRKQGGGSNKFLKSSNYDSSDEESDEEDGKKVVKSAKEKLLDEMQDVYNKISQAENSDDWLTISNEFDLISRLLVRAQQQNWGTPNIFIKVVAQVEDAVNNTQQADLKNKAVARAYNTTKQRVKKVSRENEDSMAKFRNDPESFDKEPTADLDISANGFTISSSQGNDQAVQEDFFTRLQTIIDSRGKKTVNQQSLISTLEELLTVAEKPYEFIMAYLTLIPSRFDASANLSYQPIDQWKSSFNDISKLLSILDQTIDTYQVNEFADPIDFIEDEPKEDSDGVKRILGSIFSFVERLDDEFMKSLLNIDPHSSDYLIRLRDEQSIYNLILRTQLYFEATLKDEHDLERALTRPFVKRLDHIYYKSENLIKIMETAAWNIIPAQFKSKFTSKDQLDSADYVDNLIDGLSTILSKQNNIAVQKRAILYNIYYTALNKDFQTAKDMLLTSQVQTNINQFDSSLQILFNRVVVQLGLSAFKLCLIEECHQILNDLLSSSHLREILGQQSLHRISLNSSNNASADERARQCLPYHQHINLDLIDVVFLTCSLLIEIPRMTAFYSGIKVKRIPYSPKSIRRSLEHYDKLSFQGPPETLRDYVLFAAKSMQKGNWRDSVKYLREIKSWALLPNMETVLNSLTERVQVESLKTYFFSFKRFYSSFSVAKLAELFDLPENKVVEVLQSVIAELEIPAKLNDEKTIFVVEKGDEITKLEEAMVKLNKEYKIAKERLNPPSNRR

binding result [1]: binds
binding result [2]: binds
B1: eukaryotic initiation factor 3 subunit b (eIF3b/Prt1), form starting at Met40 (natural protein)
chain: not shown
